Source: article PMC10763179 (Open access Macedonian journal of medical sciences, 2023)

Columns and labels:
Assay in all cases: NCI60 screen
Type in all cases: cell-based, human
RPMI-8226 = conditions: RPMI-8226, Leukemia; single dose 8.3 μM
MDA-MB-468 = conditions: MDA-MB-468, Mammary cancer; single dose 8.3 μM
NCI/ADR-RES = conditions: Ovarian cancer, single dose 8.3 μM
RXF 393 = conditions: RXF 393, Kidney cancer; single dose 8.3 μM
ACHN = conditions: Kidney cancer, single dose 8.3 μM
SF-539 = conditions: SF-539, tumors of the central nervous system; single dose 8.3 μM
UO-31 = conditions: UO-31, Kidney cancer; single dose 8.3 μM
SF-268 = conditions: SF-268, tumors of the central nervous system; single dose 8.3 μM
SN12C = conditions: Kidney cancer, single dose 8.3 μM
HCT-15 = conditions: HCT-15, Colon cancer; single dose 8.3 μM
CAKI-1 = conditions: CAKI-1, Kidney cancer; single dose 8.3 μM
M14 = conditions: M14, Melanoma; single dose 8.3 μM
SNB-19 = conditions: SNB-19, tumors of the central nervous system; single dose 8.3 μM
COLO 205 = conditions: COLO 205, Colon cancer; single dose 8.3 μM
NCI-H23 = conditions: NCI-H23, Non-small cell lung cancer; single dose 8.3 μM
NCI-H460 = conditions: NCI-H460, Non-small cell lung cancer; single dose 8.3 μM
SK-MEL-2 = conditions: SK-MEL-2, Melanoma; single dose 8.3 μM
OVCAR-8 = conditions: OVCAR-8, Ovarian cancer; single dose 8.3 μM
SNB-75 = conditions: SNB-75, tumors of the central nervous system; single dose 8.3 μM
MALME-3M = conditions: Melanoma, single dose 8.3 μM
NCI-H522 = conditions: NCI-H522, Non-small cell lung cancer; single dose 8.3 μM
OVCAR-5 = conditions: OVCAR-5, Ovarian cancer; single dose 8.3 μM
A498 = conditions: A498, Kidney cancer; single dose 8.3 μM
T-47D = conditions: Mammary cancer, single dose 8.3 μM
HT29 = conditions: HT29, Colon cancer; single dose 8.3 μM
IGROV1 = conditions: IGROV1, Ovarian cancer; single dose 8.3 μM
OVCAR-3 = conditions: OVCAR-3, Ovarian cancer; single dose 8.3 μM
A549/ATCC = conditions: Non-small cell lung cancer, single dose 8.3 μM
SK-MEL-5 = conditions: SK-MEL-5, Melanoma; single dose 8.3 μM
SR = conditions: Leukemia, single dose 8.3 μM
SW-620 = conditions: SW-620, Colon cancer; single dose 8.3 μM
KM12 = conditions: KM12, Colon cancer; single dose 8.3 μM
DU-145 = conditions: DU-145, Prostate cancer; single dose 8.3 μM
OVCAR-4 = conditions: OVCAR-4, Ovarian cancer; single dose 8.3 μM
HCC-2998 = conditions: HCC-2998, Colon cancer; single dose 8.3 μM
MOLT-4 = conditions: MOLT-4, Leukemia; single dose 8.3 μM
SK-MEL-28 = conditions: SK-MEL-28, Melanoma; single dose 8.3 μM
MDA-MB-435 = conditions: MDA-MB-435, Melanoma; single dose 8.3 μM
MCF7 = conditions: MCF7, Mammary cancer; single dose 8.3 μM
BT-549 = conditions: BT-549, Mammary cancer; single dose 8.3 μM
HS 578T = conditions: Mammary cancer, single dose 8.3 μM
786–0 = conditions: 786–0, Kidney cancer; single dose 8.3 μM
K-562 = conditions: K-562, Leukemia; single dose 8.3 μM
HCT-116 = conditions: HCT-116, Colon cancer; single dose 8.3 μM
UACC-62 = conditions: UACC-62, Melanoma; single dose 8.3 μM
U251 = conditions: U251, tumors of the central nervous system; single dose 8.3 μM
UACC-257 = conditions: UACC-257, Melanoma; single dose 8.3 μM
SK-OV-3 = conditions: SK-OV-3, Ovarian cancer; single dose 8.3 μM
TK-10 = conditions: TK-10, Kidney cancer; single dose 8.3 μM
MDA-MB-231/ATCC = conditions: Mammary cancer, single dose 8.3 μM
NCI-H226 = conditions: NCI-H226, Non-small cell lung cancer; single dose 8.3 μM
SF-295 = conditions: SF-295, tumors of the central nervous system; single dose 8.3 μM
HOP-62 = conditions: HOP-62, Non-small cell lung cancer; single dose 8.3 μM
PC-3 = conditions: PC-3, Prostate cancer; single dose 8.3 μM

## C=C1C(=O)O[C@@H]2[C@H]3C(C)=CC[C@@]34O[C@@]4(C)CC[C@@H]12 [Arglabin 6, arglabin]
RPMI-8226
  Growth of tumor cells, %: −5.73%
MDA-MB-468
  Growth of tumor cells, %: −44.01%
NCI/ADR-RES
  Growth of tumor cells, %: 77.13%
RXF 393
  Growth of tumor cells, %: 32.69%
ACHN
  Growth of tumor cells, %: 53.47%
SF-539
  Growth of tumor cells, %: 54.28%
UO-31
  Growth of tumor cells, %: 81.56%
SF-268
  Growth of tumor cells, %: 78.99%
SN12C
  Growth of tumor cells, %: 64.30%
HCT-15
  Growth of tumor cells, %: 24.60%
CAKI-1
  Growth of tumor cells, %: 26.61%
M14
  Growth of tumor cells, %: 67.86%
SNB-19
  Growth of tumor cells, %: 101.01%
COLO 205
  Growth of tumor cells, %: 42.37%
NCI-H23
  Growth of tumor cells, %: 62.36%
NCI-H460
  Growth of tumor cells, %: 80.10%
SK-MEL-2
  Growth of tumor cells, %: 84.20%
OVCAR-8
  Growth of tumor cells, %: 72.01%
SNB-75
  Growth of tumor cells, %: 62.66%
MALME-3M
  Growth of tumor cells, %: 67.65%
NCI-H522
  Growth of tumor cells, %: −68.86%
OVCAR-5
  Growth of tumor cells, %: 82.60%
A498
  Growth of tumor cells, %: 71.05%
T-47D
  Growth of tumor cells, %: 26.55%
HT29
  Growth of tumor cells, %: 40.70%
IGROV1
  Growth of tumor cells, %: 98.42%
OVCAR-3
  Growth of tumor cells, %: 30.37%
A549/ATCC
  Growth of tumor cells, %: 83.94%
SK-MEL-5
  Growth of tumor cells, %: 76.31%
SR
  Growth of tumor cells, %: 2.25%
SW-620
  Growth of tumor cells, %: 29.05%
KM12
  Growth of tumor cells, %: 95.54%
DU-145
  Growth of tumor cells, %: 11.52%
OVCAR-4
  Growth of tumor cells, %: 86.04%
HCC-2998
  Growth of tumor cells, %: 102.64%
MOLT-4
  Growth of tumor cells, %: 59.14%
SK-MEL-28
  Growth of tumor cells, %: 88.53%
MDA-MB-435
  Growth of tumor cells, %: 34.20%
MCF7
  Growth of tumor cells, %: 28.88%
BT-549
  Growth of tumor cells, %: 27.88%
HS 578T
  Growth of tumor cells, %: 74.60%
786–0
  Growth of tumor cells, %: 73.74%
K-562
  Growth of tumor cells, %: 26.23%
HCT-116
  Growth of tumor cells, %: 17.39%
UACC-62
  Growth of tumor cells, %: 25.79%
U251
  Growth of tumor cells, %: 81.31%
UACC-257
  Growth of tumor cells, %: 44.07%
SK-OV-3
  Growth of tumor cells, %: 101.08%
TK-10
  Growth of tumor cells, %: 5.66%
MDA-MB-231/ATCC
  Growth of tumor cells, %: 58.15%
NCI-H226
  Growth of tumor cells, %: 103.37%
SF-295
  Growth of tumor cells, %: 89.81%
HOP-62
  Growth of tumor cells, %: 67.33%
PC-3
  Growth of tumor cells, %: 56.38%
